Measured values from paper PMC4336329 (PLoS ONE, 2015).
Screen size: about 310,000 compounds; about 14,000 (4.5%) showed an effect of 50% or more. Effects have a minus sign here. This is one part of the list.

molecular target: human ether-à-go-go-related gene (hERG) potassium channel (human, UniProt Q12809); assay: primary screen, population patch clamp on CHO cells stably expressing hERG
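Note: peak tail current of the secondary pulse compared with the same well before compound.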

Chain of human ether-à-go-go-related gene (hERG) potassium channel (Q12809 whole entry, looked up): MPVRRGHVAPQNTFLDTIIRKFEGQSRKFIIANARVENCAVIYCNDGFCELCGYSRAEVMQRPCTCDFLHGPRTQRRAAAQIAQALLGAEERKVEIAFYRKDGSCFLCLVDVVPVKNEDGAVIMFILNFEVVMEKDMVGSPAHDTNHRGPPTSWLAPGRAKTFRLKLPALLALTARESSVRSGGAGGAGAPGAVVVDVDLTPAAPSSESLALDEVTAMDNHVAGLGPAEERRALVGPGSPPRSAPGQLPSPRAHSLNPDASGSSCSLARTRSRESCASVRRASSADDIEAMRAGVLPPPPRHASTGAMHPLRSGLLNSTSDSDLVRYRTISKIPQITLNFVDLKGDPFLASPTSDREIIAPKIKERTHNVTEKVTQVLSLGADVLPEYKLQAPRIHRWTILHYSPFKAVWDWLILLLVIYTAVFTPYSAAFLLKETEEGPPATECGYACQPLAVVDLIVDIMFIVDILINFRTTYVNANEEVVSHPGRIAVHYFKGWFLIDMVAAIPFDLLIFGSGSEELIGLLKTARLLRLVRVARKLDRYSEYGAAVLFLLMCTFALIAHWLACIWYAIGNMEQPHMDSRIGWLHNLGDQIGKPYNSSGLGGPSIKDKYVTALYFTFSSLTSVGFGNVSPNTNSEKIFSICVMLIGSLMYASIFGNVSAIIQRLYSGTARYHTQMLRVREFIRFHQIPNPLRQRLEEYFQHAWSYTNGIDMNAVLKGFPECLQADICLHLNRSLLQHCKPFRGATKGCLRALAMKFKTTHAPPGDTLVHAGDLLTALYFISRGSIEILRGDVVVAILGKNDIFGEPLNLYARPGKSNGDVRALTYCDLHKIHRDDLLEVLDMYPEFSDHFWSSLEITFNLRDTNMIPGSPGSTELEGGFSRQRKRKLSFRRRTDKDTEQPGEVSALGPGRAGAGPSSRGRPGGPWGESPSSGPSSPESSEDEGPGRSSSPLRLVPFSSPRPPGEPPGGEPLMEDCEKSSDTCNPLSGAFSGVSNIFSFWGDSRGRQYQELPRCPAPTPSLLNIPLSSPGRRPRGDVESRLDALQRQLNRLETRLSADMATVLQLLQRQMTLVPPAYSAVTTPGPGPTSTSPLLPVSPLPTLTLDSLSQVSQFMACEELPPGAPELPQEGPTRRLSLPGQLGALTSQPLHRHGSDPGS

| Compound | hERG current change (%, negative = inhibition) at 10uM |
| --- | --- |
| CCOC(=O)CCSCC(=O)N1N=C(c2cccs2)CC1c1ccc(C)cc1 (stereo not drawn) | 3.43% |
| CCCNC(=O)NC(=O)CSc1nncs1 | 35.1% |
| O=C1c2cc(S(=O)(=O)N(CCO)CCO)ccc2-c2ccc(S(=O)(=O)N(CCO)CCO)cc21 | 18.7% |
| CC(C)(C)C1CCC(OCC(O)CN2CCN(Cc3ccccc3)CC2)CC1.Cl (stereo not drawn) | -38.1% |
| CC(C)NC(=O)c1cc(-n2cnnc2)ccc1Cl | 15.1% |
| CN(Cc1ccccc1)C(=S)Nc1ccc2nc3n(c(=O)c2c1)CCCCC3 | -78.1% |
| Cc1cccc(NC(=S)N/N=C2\CC(C)(C)Oc3ccc(O)cc32)c1 | 8.34% |
| Cc1ccc(-n2nc(C)c3c2OC(N)=C(C#N)C3c2ccccc2F)cc1 (stereo not drawn) | 7.64% |
| COc1cc(/C=N/S(=O)(=O)CCc2ccccc2)ccc1O | 7.45% |
| O=C1CN(C(=O)N[C@@H](Cc2ccccc2)C(=O)N[C@@H](C(=O)O)c2ccccc2)c2ccccc2N1 | 19.1% |
| CC(=O)N=c1sccn1CC(O)c1ccc(Br)cc1 (stereo not drawn) | 10.9% |
| O=C(CCc1nnc(-c2ccccc2)o1)NCC1CCN(C2CCCC2)CC1 | -8.13% |
| N/C(=N\NC(=O)c1cccs1)c1cc2ccccc2oc1=O | -1.68% |
| Cc1cc(C)n(CC(=O)NCCC2=CCCCC2)n1 | 9.32% |
| Cc1cc(C(=O)NC2CCCc3c2cnn3-c2ccccc2F)nc(C)n1 (stereo not drawn) | 17.7% |
| O=C(O)CC(c1ccc(Cl)cc1)N1Cc2ccccc2C1=O (stereo not drawn) | 18.6% |
| Cc1nc(N2CCc3ccccc3C2)[nH]c(=O)c1CCC(C)C | 5.2% |
| O=C(COc1ccc(Cl)cc1Cl)NN=C1c2ccccc2-c2ccccc21 | 9.15% |
| Cn1c(=O)c2c(nc(NCC3CCCO3)n2C)n(C)c1=O (stereo not drawn) | 8.74% |
| Cc1ccc(C(=O)Nc2c(C)n(C)n(-c3ccccc3)c2=O)cc1S(=O)(=O)N1CCOCC1 | 0.249% |
| Cc1ccc(Oc2nc3c(C)cccn3c(=O)c2/C=C(\C#N)C(N)=O)cc1 | 5.43% |
| O/N=C(/CN(O)/C=C1/C=CC=N1)c1cccs1 | 7.04% |

| Compound | hERG current change (%, negative = inhibition) at 10uM |
| --- | --- |
| CCCn1nc(NC(=O)COC)c2cc3cc(C)ccc3nc21 | 0.61% |
| O=C(CCN=C1NS(=O)(=O)c2ccccc21)N1CCc2ccccc2C1 | -21.9% |
| CCOc1ccc(NS(=O)(=O)c2ccc(C(=O)NNC(=O)c3ccccc3O)cc2)cc1 | 12.6% |
| COC(=O)C1=C(c2cccc(C#N)c2)C[C@@H]2CC[C@H]1N2C(=O)NCCO | 15.7% |
| CCCC(=O)Nc1ccc(Cl)c(NC(=S)NC(=O)c2cc3ccccc3o2)c1 | -2.87% |
| CCOC(=O)c1cccc(OC(=O)CCNC(=O)c2ccc(Cl)cc2)c1 | -17.9% |
| O=C(NC(=S)Nc1ccccc1Cl)c1csnn1 | 9.47% |
| CC1CC2(C)Oc3ccccc3CC2C(C)C1CNCCCN(C)C (stereo not drawn) | 8.13% |
| Br.COc1ccc(C(=O)CN2CC(C)SC2=Nc2ccc(Cl)cc2)cc1 (stereo not drawn) | -10.6% |
| CCc1cc2c(SCC(=O)NC3CCS(=O)(=O)C3)ncnc2s1 (stereo not drawn) | -1.87% |
| COc1ccc(NC(=O)CN2CCN(c3ccccc3Cl)CC2)cc1 | -61.4% |
| COc1ccc(O)c(-c2cc(-c3ccccc3Cl)[nH]n2)c1 | 19.1% |
| Cl.O=c1c(-c2ccccc2)c(O)nc(SCCN2CCOCC2)n1-c1ccccc1 | 26.8% |
| Cc1cccc(NC(=O)CSc2nnc(C)c(C)n2)c1 | 15.3% |
| O=C(CCCN1C(=O)/C(=C/c2cccs2)SC1=S)NNC(=O)c1ccc(F)cc1 | -13.4% |
| Cc1cccc(NC(=O)CN2CCN(C(=O)C3CCCO3)CC2)c1C (stereo not drawn) | 9.91% |
| CCN1CCN(S(=O)(=O)c2cc3c(cc2Cl)NC(=O)CO3)CC1 | -2.25% |
| CC(C)Cn1c(N)c(C(=O)COC(=O)c2cc(-c3ccco3)nc3ccccc23)c(=O)n(C)c1=O | 15.2% |
| NC(=O)C1CCN(C(=O)Cn2cccc2C(=O)c2ccccc2)CC1 | -8.71% |
| Cc1ccc(OCC(=O)NCc2ccccn2)cc1 | 12.4% |
| Cc1cc(=O)n2[nH]c(-c3ccc(Cl)cc3)cc2n1 | -1.65% |
| Cc1cccc(C(=O)Nc2nnc(-c3cccnc3)o2)c1 | 12.9% |

| Compound | hERG current change (%, negative = inhibition) at 10uM |
| --- | --- |
| O=[N+]([O-])c1cc(O)c2ncccc2c1 | 9.86% |
| O=C(NCCCN1CCOCC1)c1cc2c(s1)-c1ccccc1OC2 | -44.5% |
| COc1ccc(-c2ccc(S(=O)(=O)n3nc(OC(=O)c4cccs4)cc3N)cc2)cc1 | 6.28% |
| CC(=O)c1ccc(NC(=S)Nc2cccc(S(=O)(=O)Nc3c(C)n(C)n(-c4ccccc4)c3=O)c2)cc1 | 9.89% |
| Cc1c(Cl)cccc1N/C(=N/S(=O)(=O)c1cccs1)c1ccccc1 | 13% |
| CC(C)CNS(=O)(=O)c1ccc(S(=O)(=O)N2CCC(N3CCCCC3)CC2)cc1 | -2.05% |
| CCOc1ccc(C(=O)Nc2c(C(=O)N3CCC(N4CCCCC4)CC3)oc3ccccc23)cc1 | -83.2% |
| COc1ccc(Br)cc1CN1CCCC(C(=O)N2CCCCCC2)C1.O=C(O)C(=O)O (stereo not drawn) | -62.4% |
| O=C(Nc1nc2ccccc2s1)NC1CCCCC1 | -4.88% |
| Cc1ccc(N(O)C(=O)NCCCCNC(=O)N(O)c2ccc(C)cc2)cc1 | 21.1% |
| CCOc1ccc(NC(=O)C(=O)NCCN2CCN(C(=O)c3ccc(C)cc3)CC2)cc1 | -75.2% |
| O=S(=O)(O)c1ccc(N=NNc2ccc(Br)cc2)cc1 | 30.7% |
| COc1ccc(N(C)C(=O)CCS(=O)(=O)c2cccc3nsnc23)cc1 | 1.29% |
| N#CC1=C(SCC(=O)Nc2cccc3cccnc23)NC(=O)C(C#N)C12CCCCC2 (stereo not drawn) | -20.7% |
| Cc1oc(-c2ccccc2Cl)nc1CS(=O)CC(=O)NCc1ccc2c(c1)OCO2 (stereo not drawn) | -40% |
| O=C(Cc1ccccc1)NC(C(=O)O)C(O)c1ccc([N+](=O)[O-])cc1 (stereo not drawn) | 18% |
| Cl.OCCNc1nc(Nc2ccc(O)cc2)nc2ccccc12 | -28.6% |
| COC(=O)c1cn(NC(=O)Cc2ccccc2OC)c(=O)c2ccccc12 | 13.9% |
| CCOC(=O)c1[nH]c2ccccc2c1NC(=O)NC1CCCCC1 | 3.37% |
| COC(=O)c1c(-c2ccsc2)oc2ccc(-c3cc(OC)c(OC)c(OC)c3)cc12 | 10.2% |
| COc1ccc(NC(=O)CSc2ccc3nnc(-c4ccccn4)n3n2)c(OC)c1 | -25.9% |
| Cc1cc(C)nc(N/N=C/C2=C(O)CC(c3ccccc3)CC2=O)n1 (stereo not drawn) | -7.15% |

| Compound | hERG current change (%, negative = inhibition) at 10uM |
| --- | --- |
| O=C(CSc1nnc(Cc2ccccc2)n1-c1ccccc1)N1CCOCC1 | -15.5% |
| CCC(=O)N1c2ccccc2C(N(C(=O)CC)c2ccccc2)CC1C (stereo not drawn) | 6% |
| COc1ccc(N2CC(C(=O)Nc3ccc(N4CCOCC4)cc3)CC2=O)cc1 (stereo not drawn) | 5.17% |
| COc1ccc(C(=O)Nc2cccc(C(=O)NCc3ccccc3)c2)cc1 | 4.28% |
| COc1ccc(NC(=O)Nc2ccc(N(C)C)cc2)cc1 | 10.5% |
| Cn1c(SCC(=O)N2CCCc3ccccc32)nc2cccnc21 | 9.85% |
| Cc1ccc(S(=O)(=O)Oc2ccc(/C=C(/NC(=O)c3ccccc3)C(=O)Nc3ccccc3)cc2)cc1 | 20.8% |
| CC1(C)N=c2ccc([N+](=O)[O-])c(N)c2=[N+]1[O-] | -3.19% |
| CC1Cc2ccccc2N1C(=O)c1cc2cccnc2n(C)c1=O (stereo not drawn) | 10.3% |
| COc1ccccc1CNC(=O)c1cc(C(=O)CC(C)C)c[nH]1 | -4.79% |
| O=C(N/N=C1/CCSC1)c1cccc([N+](=O)[O-])c1 | -5.26% |
| O=C(OCc1nc2ccccc2c(=O)[nH]1)c1cccs1 | 12.9% |
| CN(C)c1cccc(C(=O)N2CCC(n3nccc3NC(=O)C3CCOC3)CC2)c1 (stereo not drawn) | 3.5% |
| CCOC(=O)c1cc(-c2ccccc2)n(CC2CC(c3ccc(OC)cc3)=NO2)n1 (stereo not drawn) | -36.2% |
| COc1ccc(C(=O)NCCOc2cccc(OC)c2)cc1 | 7.75% |
| Cn1nc(-c2ccccc2)cc1NC(=O)Nc1ccc(C(C)(C)C)cc1 | 6.56% |
| O=C(Nc1ccnn1C1CCN(Cc2cccc(OCCO)c2)CC1)C1CC1 | 0.219% |
| Cc1noc(C)c1COc1ccc(C(=O)N2CCCC(C(N)=O)C2)cc1 (stereo not drawn) | -7.3% |
| Cc1cccc(OCC(=O)N/N=C\C=C\c2ccc3c(c2)OCO3)c1C | 15.9% |
| CCn1cc(/C=C(\NC(=O)c2ccccc2OC)C(=O)NCCCN2CCOCC2)c2ccccc21 | -7.61% |
| CC(C)CNC(=O)c1ccccc1N(Cc1ccccc1)S(C)(=O)=O | 8.39% |
